Measured values: the supplement of paper PMC8728848
The list shows a part of the results.

Columns and labels:
Assay in all cases: glycan array binding signal (z-score within array); higher = stronger binding
Details in all cases: glycan notation: IUPAC condensed, linker removed
[1] = molecular target: Neu5Ac(a2-3)Gal(b1-4)GlcNAc(b1-6)GalNAc
Method in brief: (§1)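 The binding signal is a Z-score computed within each array. Data were drawn from 3228 arrays in the Consortium for Functional Glycomics database, restricted to those with a known protein sequence. Scores were averaged over arrays of the same protein sequence at different concentrations or buffers, and over linkers, and negative values can be taken as non-binding.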

[2] = molecular target: Neu5Ac(a2-3)Gal(b1-4)GlcNAc(b1-6)[Gal(b1-3)]GalNAc
Method in brief: as §1

[3] = molecular target: Neu5Ac(a2-3)Gal(b1-4)GlcNAc(b1-6)[Neu5Ac(a2-3)Gal(b1-3)]GalNAc
Method in brief: as §1

[4] = molecular target: Neu5Ac(a2-3)Gal(b1-4)GlcNAc6S
Method in brief: as §1

[5] = molecular target: Neu5Ac(a2-3)Gal(b1-4)[Fuc(a1-3)]GlcNAc
Method in brief: as §1

[6] = molecular target: Neu5Ac(a2-3)Gal(b1-4)[Fuc(a1-3)]GlcNAc(b1-2)Man
Method in brief: as §1

[7] = molecular target: Neu5Ac(a2-3)Gal(b1-4)[Fuc(a1-3)]GlcNAc(b1-3)Gal
Method in brief: as §1

[8] = molecular target: Neu5Ac(a2-3)Gal(b1-4)[Fuc(a1-3)]GlcNAc(b1-3)Gal(b1-4)GlcNAc
Method in brief: as §1

[9] = molecular target: Neu5Ac(a2-3)Gal(b1-4)[Fuc(a1-3)]GlcNAc(b1-3)Gal(b1-4)[Fuc(a1-3)]GlcNAc(b1-3)Gal(b1-4)[Fuc(a1-3)]GlcNAc
Method in brief: as §1

[10] = molecular target: Neu5Ac(a2-3)Gal(b1-4)[Fuc(a1-3)]GlcNAc(b1-3)GalNAc
Method in brief: as §1

[11] = molecular target: Neu5Ac(a2-3)Gal(b1-4)[Fuc(a1-3)]GlcNAc(b1-6)[Gal(b1-3)]GalNAc
Method in brief: as §1

[12] = molecular target: Neu5Ac(a2-3)Gal(b1-4)[Fuc(a1-3)]GlcNAc(b1-6)[Neu5Ac(a2-3)Gal(b1-3)]GalNAc
Method in brief: as §1

[13] = molecular target: Neu5Ac(a2-3)Gal(b1-4)[Fuc(a1-3)]GlcNAc6S
Method in brief: as §1

[14] = molecular target: Neu5Ac(a2-3)Gal6S(b1-4)GlcNAc
Method in brief: as §1

[15] = molecular target: Neu5Ac(a2-3)Gal6S(b1-4)[Fuc(a1-3)]GlcNAc
Method in brief: as §1

Neu5Ac(a2-3)GalNAc = molecular target: Neu5Ac(a2-3)GalNAc
Method in brief: as §1

[16] = molecular target: Neu5Ac(a2-3)GalNAc(b1-4)GlcNAc
Method in brief: as §1

[17] = molecular target: Neu5Ac(a2-3)[GalNAc(b1-4)]Gal(b1-4)Glc
Method in brief: as §1

[18] = molecular target: Neu5Ac(a2-3)[GalNAc(b1-4)]Gal(b1-4)GlcNAc
Method in brief: as §1

[19] = molecular target: Neu5Ac(a2-3)[GalNAc(b1-4)]Gal(b1-4)GlcNAc(b1-3)GalNAc
Method in brief: as §1

[20] = molecular target: Neu5Ac(a2-3)[Neu5Ac(a2-6)]GalNAc
Method in brief: as §1

Neu5Ac(a2-6)Gal = molecular target: Neu5Ac(a2-6)Gal
Method in brief: as §1

[21] = molecular target: Neu5Ac(a2-6)Gal(b1-3)GlcNAc(b1-3)[Gal(b1-4)GlcNAc(b1-6)]Gal(b1-4)Glc
Method in brief: as §1

Neu5Ac(a2-6)Gal(b1-4)Glc = molecular target: Neu5Ac(a2-6)Gal(b1-4)Glc
Method in brief: as §1

[22] = molecular target: Neu5Ac(a2-6)Gal(b1-4)GlcNAc
Method in brief: as §1

[23] = molecular target: Neu5Ac(a2-6)Gal(b1-4)GlcNAc(b1-2)Man
Method in brief: as §1

[24] = molecular target: Neu5Ac(a2-6)Gal(b1-4)GlcNAc(b1-2)Man(a1-3)Man(b1-4)GlcNAc(b1-4)GlcNAc
Method in brief: as §1

[25] = molecular target: Neu5Ac(a2-6)Gal(b1-4)GlcNAc(b1-2)Man(a1-3)[Gal(b1-4)GlcNAc(b1-2)Man(a1-6)]Man(b1-4)GlcNAc(b1-4)GlcNAc
Method in brief: as §1

[26] = molecular target: Neu5Ac(a2-6)Gal(b1-4)GlcNAc(b1-2)Man(a1-3)[GlcNAc(b1-2)Man(a1-6)]Man(b1-4)GlcNAc(b1-4)GlcNAc
Method in brief: as §1

[27] = molecular target: Neu5Ac(a2-6)Gal(b1-4)GlcNAc(b1-2)Man(a1-3)[GlcNAc(b1-4)][Neu5Ac(a2-6)Gal(b1-4)GlcNAc(b1-2)Man(a1-6)]Man(b1-4)GlcNAc(b1-4)GlcNAc
Method in brief: as §1

[28] = molecular target: Neu5Ac(a2-6)Gal(b1-4)GlcNAc(b1-2)Man(a1-3)[Man(a1-6)]Man(b1-4)GlcNAc(b1-4)GlcNAc
Method in brief: as §1

[29] = molecular target: Neu5Ac(a2-6)Gal(b1-4)GlcNAc(b1-2)Man(a1-3)[Neu5Ac(a2-3)Gal(b1-4)GlcNAc(b1-2)Man(a1-6)]Man(b1-4)GlcNAc(b1-4)GlcNAc
Method in brief: as §1

[30] = molecular target: Neu5Ac(a2-6)Gal(b1-4)GlcNAc(b1-2)Man(a1-3)[Neu5Ac(a2-6)Gal(b1-4)GlcNAc(b1-2)Man(a1-6)]Man(b1-4)GlcNAc(b1-4)GlcNAc
Method in brief: as §1

[31] = molecular target: Neu5Ac(a2-6)Gal(b1-4)GlcNAc(b1-2)Man(a1-3)[Neu5Ac(a2-6)Gal(b1-4)GlcNAc(b1-2)Man(a1-6)]Man(b1-4)GlcNAc(b1-4)[Fuc(a1-6)]GlcNAc
Method in brief: as §1

[32] = molecular target: Neu5Ac(a2-6)Gal(b1-4)GlcNAc(b1-2)Man(a1-6)Man(b1-4)GlcNAc(b1-4)GlcNAc
Method in brief: as §1

[33] = molecular target: Neu5Ac(a2-6)Gal(b1-4)GlcNAc(b1-2)Man(a1-6)[Gal(b1-4)GlcNAc(b1-2)Man(a1-3)]Man(b1-4)GlcNAc(b1-4)GlcNAc
Method in brief: as §1

[34] = molecular target: Neu5Ac(a2-6)Gal(b1-4)GlcNAc(b1-2)Man(a1-6)[GlcNAc(b1-2)Man(a1-3)]Man(b1-4)GlcNAc(b1-4)GlcNAc
Method in brief: as §1

[35] = molecular target: Neu5Ac(a2-6)Gal(b1-4)GlcNAc(b1-2)Man(a1-6)[Man(a1-3)]Man(b1-4)GlcNAc(b1-4)GlcNAc
Method in brief: as §1

[36] = molecular target: Neu5Ac(a2-6)Gal(b1-4)GlcNAc(b1-2)[Neu5Ac(a2-6)Gal(b1-4)GlcNAc(b1-4)]Man(a1-3)[GlcNAc(b1-4)][Neu5Ac(a2-6)Gal(b1-4)GlcNAc(b1-2)[Neu5Ac(a2-6)Gal(b1-4)GlcNAc(b1-6)]Man(a1-6)]Man(b1-4)GlcNAc(b1-4)GlcNAc
Method in brief: as §1

[37] = molecular target: Neu5Ac(a2-6)Gal(b1-4)GlcNAc(b1-2)[Neu5Ac(a2-6)Gal(b1-4)GlcNAc(b1-4)]Man(a1-3)[GlcNAc(b1-4)][Neu5Ac(a2-6)Gal(b1-4)GlcNAc(b1-4)Man(a1-6)]Man(b1-4)GlcNAc(b1-4)GlcNAc
Method in brief: as §1

[38] = molecular target: Neu5Ac(a2-6)Gal(b1-4)GlcNAc(b1-2)[Neu5Ac(a2-6)Gal(b1-4)GlcNAc(b1-6)]Man(a1-6)[Neu5Ac(a2-6)Gal(b1-4)GlcNAc(b1-2)Man(a1-3)][GlcNAc(b1-4)]Man(b1-4)GlcNAc(b1-4)GlcNAc
Method in brief: as §1

[39] = molecular target: Neu5Ac(a2-6)Gal(b1-4)GlcNAc(b1-3)Gal(b1-3)GlcNAc
Method in brief: as §1

[40] = molecular target: Neu5Ac(a2-6)Gal(b1-4)GlcNAc(b1-3)Gal(b1-4)GlcNAc
Method in brief: as §1

[41] = molecular target: Neu5Ac(a2-6)Gal(b1-4)GlcNAc(b1-3)Gal(b1-4)GlcNAc(b1-2)Man(a1-3)[Neu5Ac(a2-6)Gal(b1-4)GlcNAc(b1-3)Gal(b1-4)GlcNAc(b1-2)Man(a1-6)]GalNAc
Method in brief: as §1

[42] = molecular target: Neu5Ac(a2-6)Gal(b1-4)GlcNAc(b1-3)Gal(b1-4)GlcNAc(b1-3)Gal(b1-4)GlcNAc
Method in brief: as §1

[43] = molecular target: Neu5Ac(a2-6)Gal(b1-4)GlcNAc(b1-3)Gal(b1-4)GlcNAc(b1-3)Gal(b1-4)GlcNAc(b1-2)Man(a1-3)[Neu5Ac(a2-6)Gal(b1-4)GlcNAc(b1-3)Gal(b1-4)GlcNAc(b1-3)Gal(b1-4)GlcNAc(b1-2)Man(a1-6)]GalNAc
Method in brief: as §1

B1: PX14343A-bvu-539-29-539 (Bacteroides vulgatus) (protein)
chain: DSLTESSSNTFWQTPDDALMALASCYDALQSNQLYNSDQYSLGPLYMDCISDNGGHFNWSGWMEGYDMAMGIHTPSSSIIGSYWKDCYEVISRCNVLIANIDRVDMDASQKAIYQAEAKTIRALMYINLTMTYQDVPFLTAPLTIDEAECEKTDRAAIVAHVMTDLQDAAEVLPQNASSRGHITKGAALSLLGRVALYNEKWDDAIAAYKQVQGLGYSLDPSYAKLFTQSGETSPEIIFAVRYEGPGMSEGAAFNAHWNTPLEAMNGTIDLADAYYCKDGKPTTDTKIAELNGGGGLDVSKPNPAHFENRDPRLYSTLFVPGMLWNGKGGIDTSASNPYANVYGGAAASLSTVYVYKYFDPTDTSNSWDNGQDFYVVRYAEVLLSLAEAMVQKGGYVYSDVTALVNEVRQRADVNMPTVEEVEGTSLSKDELLEVIKHERRVELAFEGLRLFDLYRWKELDKAVANIENERTMYGLAYEARKFNGERDYVWPLPTAELDTNKKLVQHDLWK
- glycan array binding signal (z-score) [1]: 0.089
- glycan array binding signal (z-score) [2]: -0.019
- glycan array binding signal (z-score) [3]: -0.294
- glycan array binding signal (z-score) [4]: -0.274
- glycan array binding signal (z-score) [5]: -0.418
- glycan array binding signal (z-score) [6]: -0.394
- glycan array binding signal (z-score) [7]: -0.206
- glycan array binding signal (z-score) [8]: -0.125
- glycan array binding signal (z-score) [9]: -0.377
- glycan array binding signal (z-score) [10]: 0.081
- glycan array binding signal (z-score) [11]: -0.24
- glycan array binding signal (z-score) [12]: -0.331
- glycan array binding signal (z-score) [13]: -0.063
- glycan array binding signal (z-score) [14]: -0.08
- glycan array binding signal (z-score) [15]: -0.337
- glycan array binding signal (z-score) (Neu5Ac(a2-3)GalNAc): -0.487
- glycan array binding signal (z-score) [16]: -0.142
- glycan array binding signal (z-score) [17]: -0.311
- glycan array binding signal (z-score) [18]: -0.227
- glycan array binding signal (z-score) [19]: -0.351
- glycan array binding signal (z-score) [20]: -0.379
- glycan array binding signal (z-score) (Neu5Ac(a2-6)Gal): 0.087
- glycan array binding signal (z-score) [21]: -0.319
- glycan array binding signal (z-score) (Neu5Ac(a2-6)Gal(b1-4)Glc): -0.177
- glycan array binding signal (z-score) [22]: -0.03
- glycan array binding signal (z-score) [23]: -0.173
- glycan array binding signal (z-score) [24]: -0.254
- glycan array binding signal (z-score) [25]: 0.601
- glycan array binding signal (z-score) [26]: -0.315
- glycan array binding signal (z-score) [27]: 0.041
- glycan array binding signal (z-score) [28]: -0.347
- glycan array binding signal (z-score) [29]: -0.208
- glycan array binding signal (z-score) [30]: -0.234
- glycan array binding signal (z-score) [31]: 0.105
- glycan array binding signal (z-score) [32]: 0.357
- glycan array binding signal (z-score) [33]: -0.214
- glycan array binding signal (z-score) [34]: -0.215
- glycan array binding signal (z-score) [35]: -0.336
- glycan array binding signal (z-score) [36]: -0.133
- glycan array binding signal (z-score) [37]: 0.349
- glycan array binding signal (z-score) [38]: -0.352
- glycan array binding signal (z-score) [39]: -0.135
- glycan array binding signal (z-score) [40]: -0.413
- glycan array binding signal (z-score) [41]: -0.266
- glycan array binding signal (z-score) [42]: -0.181
- glycan array binding signal (z-score) [43]: 0.481
